Data reported in PubChem BioAssay AID2546 (National Center for Advancing Translational Sciences (NCATS), 2010).
The campaign covered roughly 310,000 compounds. About 11,000 (3.5%) were called active. The inconclusive results got no clear call from the source; some entries with a clear call stand among them for comparison. The call rests on the fitted dose curve; in most records, active means well fitted inhibition curve with a large enough effect; inconclusive means small, poorly fitted or top-dose-only effect, or effect the other way; inactive means flat fitted curve, though single readings scatter. Potencies of inconclusive entries are left out as doubtful fits.
On the % scale 0 is the no-effect control and ±100 the full control effect; potency means the concentration at half of the fitted maximal effect; tags describe the fitted curve by direction and shape.

Experiment: VP16 counterscreen qHTS for inhibitors of ROR gamma transcriptional activity;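 further: Gal4-VP16 expression switched on by copper sulfate through the metallothionein promoter; nearly all actives have a fitted effect of over 50% in size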
Conditions: Drosophila S2 Gal4-VP16 UAS-luciferase, luminescence, 20 h; activity, negative = inhibition: at 53.6 µM (top of the series)
For `COCCn1c(N)c(N(Cc2ccccc2)C(=O)C2=COCCO2)c(=O)[nH]c1=O`, the “activity, negative = inhibition” value was inactive: -9.98%.
For `Cc1nc(-c2c(-c3ccc(O)cc3O)noc2C(F)(F)F)cs1`, the Potency was inconclusive [inhibitor, single point].
In the case of `COc1ccccc1-c1nnc(SCC(=O)Nc2cc(C)on2)o1`, the Potency is reported as inconclusive [inhibitor, single point].
For `O=C(O)CSc1nnc(-c2ccc(Cl)cc2Cl)n1-c1ccc(Cl)cc1`, the Potency was inconclusive [inhibitor, single point].
In the case of `CC1=CC(C)(C)N(S(=O)(=O)c2ccc(C)cc2)c2cc(C)ccc21`, the Potency is reported as inconclusive [inhibitor, single point].
In the case of `CC(C)(C)C(=O)Nc1cc2nn(-c3ccccc3)nc2cc1Cl`, the Potency is reported as active: 3.55 µM.
For `CC1CC(=S)Nc2ccccc2S1` (stereo not drawn), the Potency was active: 3.98 µM.
For `CC1=NN(c2ccc(Br)cc2)C(=O)/C1=C/c1cccs1`, the “activity, negative = inhibition” value was inactive: -0.798%.
For `CSc1ncccc1C(=O)Nc1nc2ccc(F)cc2s1`, the Potency was inconclusive [inhibitor, partial curve].
In the case of `CCOC(=O)c1c(NC(=S)Nc2ccccc2)sc(C)c1C`, the Potency is reported as inconclusive [inhibitor, single point].
In the case of `COC(=O)CCc1sc(NC2CCCCC2)nc1-c1ccc(OC)cc1`, the Potency is reported as inconclusive [inhibitor, partial curve].
With `S=c1[nH]nc(-c2ccc(Cl)cc2Cl)n1Cc1ccccc1` the Potency was active: 5.62 µM.
For `CCCCNC(=S)NCc1ccc2[nH]c(C)cc2c1`, the Potency was inconclusive [inhibitor, single point].
With `CCN(CC)c1ccc(C(=O)c2ccccc2C(=O)O)c(O)c1` the Potency was inconclusive [inhibitor, partial curve, poor fit].
In the case of `CC1CCCN(S(=O)(=O)c2ccc(C(=O)Nc3nnc(C4=COCCO4)o3)cc2)C1` (stereo not drawn), the Potency is reported as active: 1.12 µM.
With `O=C(Cc1cc(=O)[nH][nH]1)N/N=C/c1c(F)cccc1Cl` the “activity, negative = inhibition” value was inactive: -4.41%.
In the case of `CCCCNC(=S)N/N=C/C1=CCC2CC1C2(C)C` (stereo not drawn), the Potency is reported as active: 0.891 µM.
In the case of `O=C(CSc1nc2ccccc2[nH]1)Nc1ccc(F)c(F)c1`, the Potency is reported as inconclusive [inhibitor, single point].
For `COc1ccccc1/C=C/C=N\N1CCN(Cc2ccccc2Cl)CC1`, the Potency was inconclusive [inhibitor, single point].
For `O=Nc1c(-c2cccc([N+](=O)[O-])c2)nc2ncccn12`, the Potency was inconclusive [inhibitor, single point].
With `Cc1ccc(-c2csc(=S)n2CC(=O)OCC(=O)NCc2ccc(F)cc2)cc1` the Potency was inconclusive [inhibitor, single point].
With `Cc1ccc(OCCSc2ncccn2)c(C)c1` the Potency was inconclusive [inhibitor, partial curve, poor fit].
With `NC(=O)CC(NC(=O)c1ccccc1)c1ccc(N2CCC(Br)CC2)c([N+](=O)[O-])c1` (stereo not drawn) the Potency was active: 12.6 µM.
In the case of `NNC(=O)c1ccc2nc(-c3ccc(Br)cc3)cn2c1`, the Potency is reported as inconclusive [inhibitor, partial curve].
In the case of `Cc1ccc([N+](=O)[O-])cc1NC(=O)Nc1cccc(F)c1`, the Potency is reported as inconclusive [inhibitor, single point].
For `CC1=C(C)CC2C(=O)N(c3cccc4ccccc34)C(=O)C2C1` (stereo not drawn), the Potency was inconclusive [inhibitor, single point].
With `COc1ccc(C(=O)NC(C)c2csc(C)n2)cc1OC1CCN(C(C)=O)CC1` (stereo not drawn) the “activity, negative = inhibition” value was inactive: -0.872%.
With `O=C(N/N=C/c1cccnc1)c1sc2ccccc2c1Cl` the Potency was active: 25.1 µM.
For `COC(=O)c1ccc(SCc2cnc(Cl)s2)cc1`, the Potency was inconclusive [inhibitor, single point].
In the case of `O=C(Nc1ccc(N2CCCCC2)cc1)c1ccccc1`, the Potency is reported as inconclusive [inhibitor, partial curve].
For `CC(=O)NC(Cc1ccc(F)c(F)c1)C(=O)NC1CCN(C(=O)c2ccc(Cl)cc2)CC1` (stereo not drawn), the “activity, negative = inhibition” value was inactive: 4.18%.
With `Cc1ccc(C)c(C(=O)CCC(=O)NCc2ccc(Cl)cc2)c1` the “activity, negative = inhibition” value was inactive: 4.38%.
With `O=C(CC1c2ccccc2Oc2ccccc21)Nc1ccccc1C(F)(F)F` the Potency was inconclusive [inhibitor, single point].
For `COc1ccc(N2C(=O)CC(N3CCN(c4ccccc4)CC3)C2=O)cc1` (stereo not drawn), the “activity, negative = inhibition” value was inactive: -3.6%.
With `CC1CCN(c2ccccc2NC(=S)NC(=O)c2cccs2)CC1` the Potency was active: 6.31 µM.
In the case of `CC(C)(C)NC(=S)N/N=C/c1cccnc1`, the Potency is reported as active: 10 µM.
With `COc1ccc(OC)c(N/C(C)=C/C(=O)c2ccc(C)o2)c1` the Potency was inconclusive [activator, single point].
For `O=C(O)c1cc(Cl)c2c(c1)OCO2`, the “activity, negative = inhibition” value was inactive: -2.97%.
For `COc1ccc(C2C3C=CCC(c4ccccc4)C3C(=O)N2Cc2ccccc2)cc1Cl` (stereo not drawn), the Potency was inconclusive [inhibitor, single point].
In the case of `Nc1cc(=O)[nH]c(SCc2nnnn2-c2ccc(Cl)cc2)n1`, the Potency is reported as inconclusive [activator, single point].
In the case of `CC(C)c1ccc(/C=C/C(=O)NC2=NCCS2)cc1`, the Potency is reported as inconclusive [inhibitor, single point].
In the case of `CN(Cc1cc([N+](=O)[O-])c2cccnc2c1O)C1CCCCC1`, the Potency is reported as inconclusive [inhibitor, full curve].
With `CCOC(=O)N1CCN(C(=O)CCCOc2ccccc2)CC1` the Potency was inconclusive [inhibitor, single point].
In the case of `Cc1ccc(NC(=O)c2c(C)nc3ccccn23)cc1C`, the “activity, negative = inhibition” value is reported as inactive: -0.107%.
With `O=C(CCl)Nc1nc(-c2ccco2)c(-c2ccco2)s1` the Potency was inconclusive [inhibitor, single point].
With `COCCCNC(=O)COc1cc2c(c3oc(=O)c(C)c(C)c13)CCC(C)(C)O2` the “activity, negative = inhibition” value was inactive: -10.2%.
In the case of `COc1ccc(/C=N/Nc2nncn2N)cc1Br`, the Potency is reported as inconclusive [inhibitor, single point].
In the case of `C=CCn1c(SCC(=O)Nc2ccc3c(c2)OCO3)nnc1-c1cc(Br)ccc1O`, the Potency is reported as inconclusive [inhibitor, single point].
